# From publication PMC12136788
# This is one part of the list.
# B1: chr10:72062367:72062468:-|3pUTR|ENSG00000107742|unk|FALSE|unique (ssRNA)
# RNA: GGGAGUUCUACAGUCCGACGAUCCCUUGAUCCACACUGCUCCUGGCAGAGUGAGUCACCCAAAGGCCCCUUCGGCCUCCUUGUAGCUGUUUUCUUUCCUUUUGUUGUUGGUUUUAAAAUACAUUCACACACAAAUACAAAUUGCAACAGAGGAUUGAGCAUCA
# B2: chr5:148417036:148417137:+|CDS|ENSG00000145868|unk|total|mutant (ssRNA)
# RNA: GGGAGUUCUACAGUCCGACGAUCGGUUGUGCUCGAGUUGGUCUGAGUGCAGGCACAGGAAUUGGUGUUUCAUCAGCUCUUGUCCGCAACCAGAACUCCAACAAUGACGAUAAUAAUGCCCAGAAUAACAAUGCCAACAUCCACCAACAGAGGAUUGAGCAUCA
# B3: chr10:50307981:50308148:-|CDS|ENSG00000198964|control|control|control (ssRNA)
# RNA: GGGAGUUCUACAGUCCGACGAUCCUGGUGGUAUCACUGGAUUUGCUGGCUUCUCAGCGUAGUUGGAAUCUUCUGUAUUCUCUUAGCGCAUGACCACUACACUGUGGACGUGGUGGUGGCAUAUUACAUCACCACGAGACUCUUCAACAGAGGAUUGAGCAUCA
# B4: chr3:194355248:194359297:-|three_prime_utr|ENSG00000172061|control|control|control (ssRNA)
# RNA: GGGAGUUCUACAGUCCGACGAUCCUCUUUCUGGCCCCAGAGAAAGGUGAGCCUACCUCUUCCUGACUUGCCUGAUUCUCCCGUAGAGAAGCAGGUCGUGCCGGACCUUCCUACAAUCAGGAAGAUAGAUCCAACUGGCCAUGGCAACAGAGGAUUGAGCAUCA
# B5: chr1:215620365:215620495:+|CDS|ENSG00000136636|unk|FALSE|unique (ssRNA)
# RNA: GGGAGUUCUACAGUCCGACGAUCGGUUUUUCAGAAUCCAAGAAAAGGUCAUCAGAAGAUGAAAAUGAAAAUAAAAUAGAGUUUAGGAAGAAAGGAGGAUUUGAAGGGGGAGGAUUCCUUGGAAGAAAGAAAGUUCCCUAUCUGCAACAGAGGAUUGAGCAUCA
# B6: chr3:179570125:179570235:+|CDS|ENSG00000136518|unk|total|mutant (ssRNA)
# RNA: GGGAGUUCUACAGUCCGACGAUCAAGCACAUUAAUGGAAACCGAUGGCGAUAAAGGCAAACAAGGCGGUCCCACCUACUACACCGAUACUAAUGCUCUGCGUGUUCCGAGGGAGAAUAUGGAGGCCAUUUCACCUCUAAAAAACAACAGAGGAUUGAGCAUCA
# B7: chr12:132079871:132079972:+|3pUTR|ENSG00000183495|msi1|total|mutant (ssRNA)
# RNA: GGGAGUUCUACAGUCCGACGAUCAGAUGCUACCGUUGACCUGAGUUAAAUUCAUUCCGUCGUGUACGUAAAAACUCUCCUUUCCGUGUGUUAUUUUCUUGGCCUUCCCUUUUAAAGGUUAAAGUUUCUAACCUAAGAAUUAAGCAACAGAGGAUUGAGCAUCA
# B8: chr7:106091418:106091523:-|3pUTR|ENSG00000008282|msi1|total|mutant (ssRNA)
# RNA: GGGAGUUCUACAGUCCGACGAUCUUUACACCUUAAGCCUUAACAUGUAUCUUCAUUCAGAAAACAGUUAUAUUGUCAUACCACCGCCGGAAGAAAAACCUUUAUUUGGAAUAUACACUACUGUAAGUUUGUACAGAUCAUAUACAACAGAGGAUUGAGCAUCA
# B9: chr3:130733575:130733676:-|CDS|ENSG00000196455|msi1|FALSE|unique (ssRNA)
# RNA: GGGAGUUCUACAGUCCGACGAUCCGUCAAAGAGGUUCCUCGUAAUGAUAUCAAUAUUUAUCCGGAAUACAUUCUGCCAGGCAUAGCCCACUUAGCCCAAGAUGAUGCUACUAUCGUUAGACUAGCCUAUGCUGGUAAGAGUUUCAACAGAGGAUUGAGCAUCA
# B10: chr7:92086252:92086353:+|CDS|ENSG00000127914|msi1|FALSE|unique (ssRNA)
# RNA: GGGAGUUCUACAGUCCGACGAUCUCAUGAGAGCUUCUCAGACUGGCGAGGUGAACUACUGCUUGCCCUUCAACAAGUUUUCUUAGAAGAGCGUAGUGUUUUACUAGCAGCAUUUCGGACGGAGCUGACAGCUCUAGGUACUACCAACAGAGGAUUGAGCAUCA
# B11: chr6:125978377:125978478:+|3pUTR|ENSG00000111911|unk|total|mutant (ssRNA)
# RNA: GGGAGUUCUACAGUCCGACGAUCAAUUUUGCCUCUAAUAACAUAAAGGGGGAAGAAACAUAAAGUGGUUCUCUUAAUAAAACCCGCAGAAAAUGUUGCUUUAUGGCAUGUUUUUGUAUCAAAGAGAAAUCAGAGGUUAAACUUCAACAGAGGAUUGAGCAUCA
# B12: chr2:40113585:40113686:-|3pUTR|ENSG00000183023|msi1|total|mutant (ssRNA)
# RNA: GGGAGUUCUACAGUCCGACGAUCUCAUUUUAUUUUUUUACUUAAAAGGCUAUUUUGAGCCCUGUUUCUUUCACUGUCCAGUCCCGUCCUCUUUGAUUAUAUCAGCCGUUGCUGAGUAAGAAAGAAGCCAGGGUGACCAACGGGCAACAGAGGAUUGAGCAUCA
# B13: chr12:30637093:30637194:-|CDS|ENSG00000133704|unk|total|mutant (ssRNA)
# RNA: GGGAGUUCUACAGUCCGACGAUCUGUCUACAUUUUUUUUUUCUUCAAAAUUUGCAGGCAUCAUGACCGGAAGAUGUGUAUAACCGGACUGAGUAUCCUUUUGGAAUUGCAAAAUCGACCUCCUGCAGCCGAUGCUGUGGUGGGCAACAGAGGAUUGAGCAUCA
# B14: chr3:49657245:49657349:+|CDS|ENSG00000164061|unk|FALSE|unique (ssRNA)
# RNA: GGGAGUUCUACAGUCCGACGAUCCAGCCGUAGUGGCAUCAAGAAGCGGCACUCCAUGCCACGCCUGCGGGAUGCCUGUGAGCUAGAGUCUGGGACUGAGCCCUGUGUGGUCAGGAGGAUUGCCGACAGCAGCGUGCAGACAGACAACAGAGGAUUGAGCAUCA
# Biological target: T1, UNK ZnF1-6 (called full-length) (human, UniProt Q9C0B0 30-357)
# T1 sequence: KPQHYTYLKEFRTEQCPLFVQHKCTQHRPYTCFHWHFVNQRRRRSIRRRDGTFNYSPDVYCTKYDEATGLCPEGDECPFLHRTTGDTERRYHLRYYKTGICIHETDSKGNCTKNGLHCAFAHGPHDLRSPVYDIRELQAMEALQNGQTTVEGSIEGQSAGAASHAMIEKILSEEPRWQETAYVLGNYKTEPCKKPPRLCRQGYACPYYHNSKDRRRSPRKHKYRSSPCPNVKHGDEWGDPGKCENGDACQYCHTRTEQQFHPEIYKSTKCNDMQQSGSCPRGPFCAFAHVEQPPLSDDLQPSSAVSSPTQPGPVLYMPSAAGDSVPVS
# Assay: nsRBNS (natural sequence RNA bind-n-seq); RBNS binding buffer (assumed for nsRBNS): 25 mM Tris pH 7.5, 150 mM KCl, 3 mM MgCl2, 0.01% Triton X-100, 500 ug/ml BSA, 20 U/ml SUPERase-In, 4 C; UNK is unkempt and MSI1 is Musashi-1; names of the RNAs are library labels; protein concentration not given here; high values mean tight binding
row,Binder,binding signal
1,B1,0.749 enrichment R
2,B2,0.414 enrichment R
3,B3,0.472 enrichment R
4,B4,0.656 enrichment R
5,B5,1.23 enrichment R
6,B6,0.614 enrichment R
7,B7,0.272 enrichment R
8,B8,0.414 enrichment R
9,B9,1.03 enrichment R
10,B10,0.447 enrichment R
11,B11,0.311 enrichment R
12,B12,0.707 enrichment R
13,B13,0.482 enrichment R
14,B14,0.768 enrichment R
